Experimental data taken from the antibiotic and cytotoxicity screens of Wong et al. (2023).
The other results are listed elsewhere or left out.

What was measured:
[1] = tested on: HSkMC (human skeletal muscle cells); experiment: cytotoxicity call (relative viability < 0.9); details: 10 µM
[2] = tested on: S. aureus RN4220; experiment: growth inhibition call (relative growth <= 0.2); details: 50 µM

Question: What does the source list for `CO[C@@H]1CN(C)C(=O)c2cc(NC(=O)NC3CCCCC3)ccc2OC[C@@H](C)N(CCc2ccccc2)C[C@@H]1C`?
Answer: cytotoxicity call [1]: inactive; growth inhibition call [2]: inactive

Question: `Cc1ccc(S(=O)(=O)Nc2ccc3c(c2)C(=O)N([C@H](C)CO)C[C@H](C)[C@@H](CN(C)CC2CCCCC2)OCCCC[C@H](C)O3)cc1` was tested. Which cytotoxicity call [1] did it give?
Answer: inactive

Question: What about the growth inhibition call [2] of the same compound?
Answer: inactive

Question: What does the source list for `C[C@H](CO)N1C[C@H](C)[C@H](CN(C)Cc2ccc(Cl)c(Cl)c2)Oc2c(NC(=O)Nc3cccc4ccccc34)cccc2C1=O`?
Answer: cytotoxicity call [1]: inactive; growth inhibition call [2]: inactive

Question: Which results are given for `C[C@@H]1CN([C@H](C)CO)C(=O)c2cccc(NC(=O)c3cnccn3)c2O[C@H]1CN(C)Cc1ccncc1`?
Answer: cytotoxicity call [1]: inactive; growth inhibition call [2]: inactive

Question: Which results are given for `NC(=O)C1CCOCC1`?
Answer: cytotoxicity call [1]: inactive; growth inhibition call [2]: inactive

Question: Which results are given for `O=C(O)CC(CC(=O)O)C(=O)O`?
Answer: cytotoxicity call [1]: inactive; growth inhibition call [2]: inactive

Question: Which results are given for `C[C@H](O)C#Cc1ccc2c(c1)O[C@@H](CN(C)C(=O)C1CCCCC1)[C@@H](C)CN([C@@H](C)CO)S2(=O)=O`?
Answer: cytotoxicity call [1]: inactive; growth inhibition call [2]: inactive

Question: With `Cc1cccc2ccccc12` as the compound, how does the cytotoxicity call [1] read?
Answer: inactive

Question: And the growth inhibition call [2]?
Answer: inactive

Question: `O=C(CCCCCC(=O)Nc1ccccc1O)N/N=C/[C@H](O)[C@@H](O)[C@@H](O)[C@H](O)C(=O)O` was tested. Which cytotoxicity call [1] did it give?
Answer: inactive

Question: And the growth inhibition call [2]?
Answer: inactive

Question: Which cytotoxicity call [1] does the source give for `C=CC1=C(C(=O)O)N2C(=O)[C@@H](NC(=O)/C(=N\OCC(=O)O)c3csc(N)n3)[C@H]2SC1` here?
Answer: inactive

Question: And the growth inhibition call [2]?
Answer: active

Question: `COc1ccc2c3c(n(c2c1)C)[C@H](CO)N(C[C@]13CCN(CC1)Cc1ccccc1F)C(=O)Nc1ccc(cc1)F` was tested. Which cytotoxicity call [1] did it give?
Answer: inactive

Question: What about the growth inhibition call [2] of the same compound?
Answer: inactive

Question: For `CCn1c(=S)ccc2ccccc21`, which cytotoxicity call [1] is on record?
Answer: inactive

Question: And the growth inhibition call [2]?
Answer: inactive

Question: What does the source list for `C[C@H](CO)N1C[C@H](C)[C@@H](CN(C)S(=O)(=O)c2cccs2)OCCCC[C@H](C)Oc2ccc(NS(=O)(=O)c3cn(C)cn3)cc2C1=O`?
Answer: cytotoxicity call [1]: inactive; growth inhibition call [2]: inactive

Question: How did the cytotoxicity call [1] turn out when `C[C@H](CO)N1C[C@H](C)[C@H](CN(C)Cc2ccc(Cl)c(Cl)c2)Oc2ccc(NC(=O)CCCCCC(=O)Nc3ccccc3N)cc2CC1=O` was run?
Answer: inactive

Question: What about the growth inhibition call [2] of the same compound?
Answer: inactive

Question: How did the cytotoxicity call [1] turn out when `COc1ccc([C@@H](NC(=O)C2CCN(CCOc3ccc(Cl)cc3Cl)CC2)c2ccccn2)cc1` was run?
Answer: inactive

Question: And the growth inhibition call [2]?
Answer: inactive

Question: `Cc1cc(SCc2ccc(F)cc2)c(C)cc1Cl` was tested. Which cytotoxicity call [1] did it give?
Answer: inactive

Question: And the growth inhibition call [2]?
Answer: inactive

Question: For `Cc1noc(C)c1S(=O)(=O)Nc1ccc2c(c1)C(=O)N([C@@H](C)CO)C[C@@H](C)[C@H](CN(C)C(=O)Nc1ccc(C(F)(F)F)cc1)OCCCC[C@H](C)O2`, which cytotoxicity call [1] is on record?
Answer: inactive

Question: And the growth inhibition call [2]?
Answer: inactive

Question: What does the source list for `COc1ccc(NC(=O)Nc2cccc3c2O[C@H](CN(C)Cc2ccc(Cl)c(Cl)c2)[C@@H](C)CN([C@@H](C)CO)C3=O)cc1`?
Answer: cytotoxicity call [1]: active; growth inhibition call [2]: inactive

Question: Which results are given for `C[C@H](CO)N1C[C@H](C)[C@@H](CN(C)C(=O)C2CCOCC2)Oc2ncc(C#Cc3cccc(F)c3)cc2C1=O`?
Answer: cytotoxicity call [1]: inactive; growth inhibition call [2]: inactive

Question: `C[C@H](O)C#Cc1ccc2c(c1)O[C@@H](CN(C)C(=O)c1ccncc1)[C@H](C)CN([C@@H](C)CO)S2(=O)=O` was tested. Which cytotoxicity call [1] did it give?
Answer: inactive

Question: What about the growth inhibition call [2] of the same compound?
Answer: inactive

Question: Which cytotoxicity call [1] does the source give for `COc1cccc(C(=O)Nc2ccc3c(c2)C(=O)N(C)[C@@H]2CC[C@@H](CC(=O)NCC(F)(F)F)O[C@H]2CO3)c1` here?
Answer: inactive

Question: What about the growth inhibition call [2] of the same compound?
Answer: inactive

Question: Which cytotoxicity call [1] does the source give for `C[C@H](CO)N1C[C@H](C)[C@@H](CN(C)Cc2ccccc2)Oc2cc(C#CC(C)(C)O)ccc2S1(=O)=O` here?
Answer: inactive

Question: What about the growth inhibition call [2] of the same compound?
Answer: inactive

Question: With `O=C(CN1CCOCC1)NCC[C@H]1CC[C@@H](NC(=O)c2ccccc2F)[C@@H](CO)O1` as the compound, how does the cytotoxicity call [1] read?
Answer: inactive

Question: What about the growth inhibition call [2] of the same compound?
Answer: inactive

Question: What does the source list for `C[C@H]1CN([C@@H](C)CO)C(=O)c2c(c3ccccc3n2C)-c2ccccc2CO[C@H]1CN(C)S(=O)(=O)c1ccc(C(F)(F)F)cc1`?
Answer: cytotoxicity call [1]: inactive; growth inhibition call [2]: inactive

Question: Which cytotoxicity call [1] does the source give for `COCC(=O)Nc1ccc2c(c1)[C@@H]1C[C@@H](CC(=O)N3CCOCC3)O[C@@H](CO)[C@@H]1O2` here?
Answer: inactive

Question: What about the growth inhibition call [2] of the same compound?
Answer: inactive

Question: What does the source list for `C[C@H](CO)N1C[C@H](C)[C@@H](CN(C)Cc2ccccc2)Oc2ccc(NC(=O)CCCN(C)C)cc2C1=O`?
Answer: cytotoxicity call [1]: inactive; growth inhibition call [2]: inactive

Question: For `C[C@@H]1CN([C@H](C)CO)C(=O)c2cccc(NS(C)(=O)=O)c2O[C@@H]1CN(C)C(=O)Nc1ccccc1`, which cytotoxicity call [1] is on record?
Answer: inactive

Question: What about the growth inhibition call [2] of the same compound?
Answer: inactive

Question: For `O=C(C[C@@H]1C[C@@H]2c3cc(NC(=O)C4CCOCC4)ccc3O[C@@H]2[C@H](CO)O1)NCc1cc(F)ccc1F`, which cytotoxicity call [1] is on record?
Answer: inactive

Question: And the growth inhibition call [2]?
Answer: inactive

Question: Which results are given for `C[C@H](CO)N1C[C@H](C)[C@@H](CN(C)CC2CCCCC2)Oc2c(NC(=O)Nc3ccc(C(F)(F)F)cc3)cccc2C1=O`?
Answer: cytotoxicity call [1]: active; growth inhibition call [2]: inactive

Question: With `COc1ccccc1OCC(O)CO` (stereo not given) as the compound, how does the cytotoxicity call [1] read?
Answer: inactive

Question: And the growth inhibition call [2]?
Answer: inactive

Question: Which results are given for `C[C@@H]1CCCCO[C@H](CN(C)C(=O)Nc2ccc(C(F)(F)F)cc2)[C@H](C)CN([C@H](C)CO)C(=O)c2cc(NS(=O)(=O)c3cn(C)cn3)ccc2O1`?
Answer: cytotoxicity call [1]: inactive; growth inhibition call [2]: inactive

Question: Which results are given for `CCCN(C)C[C@@H]1OCCCC[C@H](C)Oc2ccc(NC(=O)Nc3ccc4c(c3)OCO4)cc2C(=O)N([C@H](C)CO)C[C@@H]1C`?
Answer: cytotoxicity call [1]: inactive; growth inhibition call [2]: inactive

Question: Which results are given for `C[C@H](CO)N1C[C@H](C)[C@@H](CN(C)C(=O)Cc2ccccc2)OCCCC[C@H](C)Oc2ccc(NC(=O)Nc3ccc(F)cc3)cc2C1=O`?
Answer: cytotoxicity call [1]: inactive; growth inhibition call [2]: inactive

Question: Which cytotoxicity call [1] does the source give for `CC(C)NC(=O)Nc1ccc2c(c1)C(=O)N(C)[C@@H]1CC[C@@H](CC(=O)NCc3ccc(F)cc3)O[C@@H]1CO2` here?
Answer: inactive

Question: And the growth inhibition call [2]?
Answer: inactive

Question: `COc1cccc(S(=O)(=O)N2C[C@H](O)COC[C@H]3O[C@@H](CC(=O)NCCCN4CCOCC4)CC[C@@H]32)c1` was tested. Which cytotoxicity call [1] did it give?
Answer: inactive

Question: What about the growth inhibition call [2] of the same compound?
Answer: inactive

Question: With `COc1ccc(NC(=O)N(C)C[C@@H]2Oc3ccc(NS(=O)(=O)c4c(C)noc4C)cc3C(=O)N([C@@H](C)CO)C[C@H]2C)cc1` as the compound, how does the cytotoxicity call [1] read?
Answer: inactive

Question: What about the growth inhibition call [2] of the same compound?
Answer: inactive

Question: Which cytotoxicity call [1] does the source give for `C[C@@H]1CN([C@@H](C)CO)C(=O)c2cc(NC(=O)CCCN(C)C)ccc2O[C@@H](C)CCCCO[C@H]1CN(C)Cc1ccc(C(F)(F)F)cc1` here?
Answer: inactive

Question: What about the growth inhibition call [2] of the same compound?
Answer: inactive

Question: How did the cytotoxicity call [1] turn out when `C[C@H](CO)N1C[C@H](C)[C@H](CN(C)C(=O)CN(C)C)Oc2cc(-c3ccc(C#N)cc3)ccc2S1(=O)=O` was run?
Answer: inactive

Question: What about the growth inhibition call [2] of the same compound?
Answer: inactive

Question: `C[C@H](C(=O)O)N1CCCCC1` was tested. Which cytotoxicity call [1] did it give?
Answer: inactive

Question: And the growth inhibition call [2]?
Answer: inactive

Question: For `C[C@H]1CN([C@@H](C)CO)C(=O)c2cc(NC(=O)Cc3ccccc3)ccc2O[C@H]1CN(C)S(=O)(=O)c1cccs1`, which cytotoxicity call [1] is on record?
Answer: inactive

Question: What about the growth inhibition call [2] of the same compound?
Answer: inactive

Question: What does the source list for `C[C@H]1CN([C@@H](C)CO)S(=O)(=O)c2ccc(-c3cncnc3)cc2O[C@H]1CN(C)C(=O)Cc1ccccc1`?
Answer: cytotoxicity call [1]: inactive; growth inhibition call [2]: inactive

Question: `C[C@@H]1CN([C@@H](C)CO)C(=O)Cc2cc(NC(=O)Cc3cn(C)c4ccccc34)ccc2O[C@H]1CN(C)C(=O)Nc1ccc(C(F)(F)F)cc1` was tested. Which cytotoxicity call [1] did it give?
Answer: inactive

Question: And the growth inhibition call [2]?
Answer: inactive

Question: Which results are given for `CC(=O)Oc1cccc(O)c1`?
Answer: cytotoxicity call [1]: inactive; growth inhibition call [2]: inactive

Question: Which cytotoxicity call [1] does the source give for `C[C@H](CO)N1C[C@H](C)[C@@H](CN(C)Cc2cccc3c2OCCCO3)OCc2cn(nn2)CCCC1=O` here?
Answer: inactive

Question: And the growth inhibition call [2]?
Answer: inactive

Question: With `C[C@H](CO)N1C[C@H](C)[C@H](CN(C)C)OCCCC[C@H](C)Oc2ccc(NC(=O)Nc3cccc4ccccc34)cc2C1=O` as the compound, how does the cytotoxicity call [1] read?
Answer: inactive

Question: What about the growth inhibition call [2] of the same compound?
Answer: inactive

Question: Which results are given for `COc1ccc(cc1)S(=O)(=O)N1CC[C@]2(CC1)CN([C@@H](CO)c1c2c2ccc(cc2n1C)OC)C(=O)CN(C)C`?
Answer: cytotoxicity call [1]: inactive; growth inhibition call [2]: inactive

Question: `CC1(C)CC[C@]2(C(=O)O[C@@H]3O[C@H](CO[C@@H]4O[C@H](CO)[C@@H](O)[C@H](O)[C@H]4O)[C@@H](O)[C@H](O)[C@H]3O)CC[C@]3(C)C(=CC[C@H]4[C@@]5(C)CC[C@H](O[C@@H]6OC[C@H](O)[C@H](O)[C@H]6O)C(C)(C)[C@@H]5CC[C@]43C)[C@@H]2C1` was tested. Which cytotoxicity call [1] did it give?
Answer: inactive

Question: And the growth inhibition call [2]?
Answer: inactive

Question: `CC(C)=CCC/C(C)=C/CC/C(C)=C/CCC(=O)OC/C=C(\C)CCC=C(C)C` was tested. Which cytotoxicity call [1] did it give?
Answer: inactive

Question: What about the growth inhibition call [2] of the same compound?
Answer: inactive

Question: With `C[C@@H]1CN([C@@H](C)CO)C(=O)Cc2cc(NC(=O)Nc3ccc(C(F)(F)F)cc3)ccc2O[C@H]1CN(C)Cc1ccc(C(=O)O)cc1` as the compound, how does the cytotoxicity call [1] read?
Answer: inactive

Question: What about the growth inhibition call [2] of the same compound?
Answer: inactive

Question: How did the cytotoxicity call [1] turn out when `C[C@@H]1CCCCO[C@H](CN(C)S(C)(=O)=O)[C@@H](C)CN([C@@H](C)CO)C(=O)c2cc(NC(=O)Nc3ccc(C(F)(F)F)cc3)ccc2O1` was run?
Answer: inactive

Question: What about the growth inhibition call [2] of the same compound?
Answer: inactive
